Results reported in the supplement of paper PMC12217912.
This is one part of the list. The full chains were built here from the parent and the listed change. Values near 0.05 are background.

B1: TEV protease; numbered along this chain (parent)
chain: MGESLFKGPRDYNPISSSICHLTNESDGHTTSLYGIGFGPFIITNKHLFRRNNGTLVVQSLHGVFKVKDTTTLQQHLVDGRDMIIIRMPKDFPPFPQKLKFREPQREERICLVTTNFQTKSMSSMVSDTSCTFPSGDGIFWKHWIQTKDGQCGSPLVSTRDGFIVGIHSASNFTNTNNYFTSVPKNFMELLTNQEAQQWVSGWRLNADSVLWGGHKVFMVKPEEPFQPVKEATQL
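Further: Bxb1 expression induced with 0.2% (w/v) L-rhamnose at OD600 near 0.5, cultures sampled hourly, flipped fraction per protease–substrate barcode pair counted by paired-end Illumina sequencing.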

Variants of: B1
Assay: raw area under fraction-flipped curve 0-4 h after induction (AUC4h, not background-subtracted), DNA-recorder readout of cleavage of the substrate (dimensionless); higher = more cleavage of the substrate by the protease variant
Settings: temperature: 34 °C; time window: 0-4 h after rhamnose induction
For MGESLFKGPRDYNPISSSICHLTNESDGHTTSLYGIGFGPFIITNKHLFRRNNGTLVVQSLHGVSKVKDTTTLQQHLVDGRDMIIIRMPKDFPPFPQKLKFREPQREERICLVTTNFQTKSMSSMVSDTSCTFPSGDGIFWKHWIQTKDGQCGSPLVSTRDGFIVGIHSASNFTNTNNYFTSVPKNFMELLTNQEAQQWVSGWRLNADSVLWGGHKVFMVKPEEPFQPVKEATQL [F65S], the “area with substrate EILYFQS” value was 0.116, the “area with substrate EKLYFQS” value was 0.0881 and the “area with substrate EMLYFQS” value was 0.0654. The “area with substrate EQLYFQS” value was 0.0886, the “area with substrate ESLYFQS” value was 0.0965 and the “area with substrate ETLYFQS” value was 0.113. The “area with substrate EWLYFQS” value was 0.0774 and the “area with substrate EYLYFQS” value was 0.0962.
With MGESLFKGPRDYNPISSSICHLTNESDGHTTSLYGIGFGPFIITNKHLFRRNNGTLVVQSLHGVFKVKDTTTLQQHLVDGRDMIIIRMPKDFYPFPQKLKFREPQREERICLVTTNFQTKSMSSMVSDTSCTFPSGDGIFWKHWIQTKDGQCGSPLVSTRDGFIVGIHSASNFTNTNNYFTSVPKNFMELLTNQEAQQWVSGWRLNADSVLWGGHKVFMVKPEEPFQPVKEATQL [P93Y] the “area with substrate EILYFQS” value was 0.0778, the “area with substrate ELLYFQS” value was 0.0837 and the “area with substrate EMLYFQS” value was 0.107. For the same variant, the “area with substrate EQLYFQS” value was 0.0941.
In the case of MGESLFKGPRDYNPISSSICHLTNESDGHTTSLYGIGFGPFIITNKHLFRRNNGTLVVQSLHGVFKVKDTTTLQQHLVDGRDMIIIRMPKDFPPFPQKLKFREPQREERICLVTTNFQTKSMSSMVSDESCTFPSGDGIFWKHWIQTKDGQCGSPLVSTRDGFIVGIHSASNFTNTNNYFTSVPKNFMELLTNQEAQQWVSGWRLNADSVLWGGHKVFMVKPEEPFQPVKEATQL [T129E], the “area with substrate EILYFQS” value is reported as 0.0968, the “area with substrate EMLYFQS” value is reported as 0.0988 and the “area with substrate EQLYFQS” value is reported as 0.102. For the same variant, the “area with substrate ESLYFQS” value was 0.0873, the “area with substrate ETLYFQS” value was 0.102 and the “area with substrate EVLYFQS” value was 0.0912. For the same variant, the “area with substrate EYLYFQS” value was 0.0932.
With MGESLFKGPRDYNPISSSICHLTNESDGHTTSLYGIGFGPFIITNKHLFRRNNGTLVVQSLHGVFKVKDTTTLQQHLVDGRDMIIIRMPKDFPPFPQKLKFREPQREERICLVTTNFQTKSMSSMVSDTSCTFPSGDGIFWKHWIQTKDGQCGSPLVSTRPGFIVGIHSASNFTNTNNYFTSVPKNFMELLTNQEAQQWVSGWRLNADSVLWGGHKVFMVKPEEPFQPVKEATQL [D161P] the “area with substrate EILYFQS” value was 0.0516, the “area with substrate EKLYFQS” value was 0.058 and the “area with substrate EPLYFQS” value was 0.0296. The “area with substrate EVLYFQS” value was 0.0757.
In the case of MGESLFKGPRDYNPISSSICHLTNESDGHTTSLYGIGFGPFIITNKHLFRRNNGTLVVQSLHGVFKVKDTTTLQQHLVDGRDMIIIRMPKDFPPFPQKLKFREPQREERICLVTTNFQTKSMSSMVSDTSCTFPSGDGIFWKHWIQTKDGQCGSPLVSTRDGFIVGIHSASNFTNTNNNFTSVPKNFMELLTNQEAQQWVSGWRLNADSVLWGGHKVFMVKPEEPFQPVKEATQL [Y179N], the “area with substrate EILYFQS” value is reported as 0.0425, the “area with substrate EPLYFQS” value is reported as 0.0513 and the “area with substrate EQLYFQS” value is reported as 0.062.
For MGESLFKGPRDYNPISSSICHLTNESDGHTTSLYGIGFGPFIITNKHLFRRNNGTLVVQSLHGVFKVKDTTTLQQHLVDGRDMIIIRMPKDFPPFPQKLKFREPQREERICLVTTNFQTKSMSSMVSDTSCTFPSGDGIFWKHWIQTKDGQCGSPLVSTRDGFIVGIHSASNFTNTNNYFTSVPKIFMELLTNQEAQQWVSGWRLNADSVLWGGHKVFMVKPEEPFQPVKEATQL [N186I], the “area with substrate EILYFQS” value was 0.0735, the “area with substrate EKLYFQS” value was 0.0804 and the “area with substrate EMLYFQS” value was 0.0812.
With MGESLFKGPRDYNPISSSICHLTNESDGHTTSLYGIGFGPFIITNKHLFRRNNGTLVVQSLHGVFKVKDTTTLQQHLVDGRDMIIIRMPKDFPPFPQKLKFREPQREERICLVTTNFQTKSMSSMVSDTSCTFPSGDGIFWKHWIQTKDGQCGSPLVSTRDGFIVGIHSASNFTNTNNYFTSVPKNFMELLTNQEAQQIVSGWRLNADSVLWGGHKVFMVKPEEPFQPVKEATQL [W199I] the “area with substrate EILYFQS” value was 0.0793, the “area with substrate EKLYFQS” value was 0.0403 and the “area with substrate ELLYFQS” value was 0.0613. The “area with substrate EMLYFQS” value was 0.0476, the “area with substrate EPLYFQS” value was 0.0726 and the “area with substrate EQLYFQS” value was 0.073.
For MGESLFKGPRDYNPISSSICHLTNESDGHTTSLYGIGFGPFIITNKHLFRRNNGTLVVQSLHGVFKVKDTTTLQQHLVDGRDMIIIRMPKDFPPFPQKLKFREPQREERICLVTTNFQTKSMSSMVSDTSCTFPSGDGIFWKHWIQTKDGQCGSPLVSTRDGFIVGIHSASNFTNTNNYFTSVPKNFMELLTNQEAQQWVSGWRLNADSVLWGGHKVFMVKPEESFQPVKEATQL [P225S], the “area with substrate EILYFQS” value was 0.0769, the “area with substrate ELLYFQS” value was 0.0984 and the “area with substrate EQLYFQS” value was 0.0882. For the same variant, the “area with substrate ERLYFQS” value was 0.0868, the “area with substrate EVLYFQS” value was 0.0024 and the “area with substrate EWLYFQS” value was 0.104. The “area with substrate EYLYFQS” value was 0.0709.
With MGESLFKGPRDYNPISSSICHLTNESDGHTTSLYGIGFGPFIITNKHLFRRNNGTLVEQSLHGVFKVKDTTTLQQHLVDGRDMIIIRMPKDFPPFPQKLKFREPQREERICLVTTNFQTKSMSSMVSDTSCTFPSGDGIFWKHWIQTKDGQCGSPLVSTRDGFIVGIHSASNFTNTNNYFTSVPKNFMELLTNQEAQQWVSGWRLNADSVLWGGHKVFMVKPEEPFQPVKEATQL [V58E] the “area with substrate EKLYFQS” value was 0.0361 and the “area with substrate EVLYFQS” value was 0.0387.
With MGESLFKGPRDYNPISSSICHLTNESDGHTTSLYGIGFGPFIITNKHLFRRNNGTLVVQSLHGVFKVKDTMTLQQHLVDGRDMIIIRMPKDFPPFPQKLKFREPQREERICLVTTNFQTKSMSSMVSDTSCTFPSGDGIFWKHWIQTKDGQCGSPLVSTRDGFIVGIHSASNFTNTNNYFTSVPKNFMELLTNQEAQQWVSGWRLNADSVLWGGHKVFMVKPEEPFQPVKEATQL [T71M] the “area with substrate EKLYFQS” value was 0.0733, the “area with substrate EMLYFQS” value was 0.103 and the “area with substrate EQLYFQS” value was 0.103. For the same variant, the “area with substrate ESLYFQS” value was 0.0927.
With MGESLFKGPRDYNPISSSICHLTNESDGHTTSLYGIGFGPFIITNKHLFRRNNGTLVVQSLHGVFKVKDTTTLQQHLVDGRDMIIIRMPKDFPPFPQKLKFREPQREERICLVTTRFQTKSMSSMVSDTSCTFPSGDGIFWKHWIQTKDGQCGSPLVSTRDGFIVGIHSASNFTNTNNYFTSVPKNFMELLTNQEAQQWVSGWRLNADSVLWGGHKVFMVKPEEPFQPVKEATQL [N116R] the “area with substrate EKLYFQS” value was 0.117, the “area with substrate ELLYFQS” value was 0.0916 and the “area with substrate EMLYFQS” value was 0.129. For the same variant, the “area with substrate EQLYFQS” value was 0.114, the “area with substrate ESLYFQS” value was 0.11 and the “area with substrate ETLYFQS” value was 0.146. The “area with substrate EWLYFQS” value was 0.0777.
